The supplement of paper PMC8728848
Some of the results follow.

What was measured:
Test in all cases: glycan array binding signal (z-score within array); higher = stronger binding
Conditions in all cases: glycan notation: IUPAC condensed, linker removed; mutation: H262T
[1] = target: Neu5Ac(a2-6)GlcNAc(b1-4)GlcNAc
How it was run: (§1)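 Columns mapping to the same glycan were averaged after glycan names were converted to IUPAC-condensed notation. The data come from 3228 arrays in the Consortium for Functional Glycomics database, limited to those with an available protein sequence. Binding is reported as a within-array Z-score averaged across arrays of one protein sequence and across linkers.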

[2] = target: Neu5Ac(a2-6)GlcNAc(b1-4)GlcNAc(b1-4)GlcNAc
How it was run: as §1

Neu5Ac(a2-8)Neu5Ac = target: Neu5Ac(a2-8)Neu5Ac
How it was run: as §1

[3] = target: Neu5Ac(a2-8)Neu5Ac(a2-3)Gal(b1-3)GalNAc(b1-4)[Neu5Ac(a2-3)]Gal(b1-4)Glc
How it was run: as §1

[4] = target: Neu5Ac(a2-8)Neu5Ac(a2-3)Gal(b1-3)GalNAc(b1-4)[Neu5Ac(a2-8)Neu5Ac(a2-3)]Gal(b1-4)Glc
How it was run: as §1

[5] = target: Neu5Ac(a2-8)Neu5Ac(a2-3)Gal(b1-4)Glc
How it was run: as §1

[6] = target: Neu5Ac(a2-8)Neu5Ac(a2-3)Gal(b1-4)GlcNAc
How it was run: as §1

[7] = target: Neu5Ac(a2-8)Neu5Ac(a2-3)[Gal(b1-3)GalNAc(b1-4)]Gal(b1-4)Glc
How it was run: as §1

[8] = target: Neu5Ac(a2-8)Neu5Ac(a2-3)[GalNAc(b1-4)]Gal(b1-4)Glc
How it was run: as §1

[9] = target: Neu5Ac(a2-8)Neu5Ac(a2-8)Neu5Ac
How it was run: as §1

[10] = target: Neu5Ac(a2-8)Neu5Ac(a2-8)Neu5Ac(a2-3)Gal(b1-4)Glc
How it was run: as §1

[11] = target: Neu5Ac(a2-8)Neu5Ac(a2-8)Neu5Ac(a2-3)[Gal(b1-3)GalNAc(b1-4)]Gal(b1-4)Glc
How it was run: as §1

[12] = target: Neu5Ac(a2-8)Neu5Ac(a2-8)Neu5Ac(a2-3)[GalNAc(b1-4)]Gal(b1-4)Glc
How it was run: as §1

[13] = target: Neu5Ac(a2-8)Neu5Ac(a2-8)Neu5Ac(a2-8)Neu5Ac(a2-3)[GalNAc(b1-4)]Gal(b1-4)Glc
How it was run: as §1

[14] = target: Neu5Ac(a2-8)Neu5Gc(a2-3)Gal(b1-4)GlcNAc
How it was run: as §1

[15] = target: Neu5Ac(b2-6)Gal(b1-4)GlcNAc
How it was run: as §1

Neu5Ac(b2-6)GalNAc = target: Neu5Ac(b2-6)GalNAc
How it was run: as §1

[16] = target: Neu5Ac9Ac(a2-3)Gal(b1-3)GlcNAc
How it was run: as §1

[17] = target: Neu5Ac9Ac(a2-3)Gal(b1-4)GlcNAc
How it was run: as §1

[18] = target: Neu5Ac9Ac(a2-6)Gal(b1-4)GlcNAc
How it was run: as §1

[19] = target: Neu5Gc(a2-3)Gal(b1-3)GlcNAc
How it was run: as §1

[20] = target: Neu5Gc(a2-3)Gal(b1-3)[Fuc(a1-4)]GlcNAc
How it was run: as §1

Neu5Gc(a2-3)Gal(b1-4)Glc = target: Neu5Gc(a2-3)Gal(b1-4)Glc
How it was run: as §1

[21] = target: Neu5Gc(a2-3)Gal(b1-4)GlcNAc
How it was run: as §1

[22] = target: Neu5Gc(a2-3)Gal(b1-4)GlcNAc(b1-3)Gal(b1-4)GlcNAc(b1-2)Man(a1-3)[Neu5Gc(a2-3)Gal(b1-4)GlcNAc(b1-3)Gal(b1-4)GlcNAc(b1-2)Man(a1-6)]Man(b1-4)GlcNAc(b1-4)GlcNAc
How it was run: as §1

[23] = target: Neu5Gc(a2-3)Gal(b1-4)[Fuc(a1-3)]GlcNAc
How it was run: as §1

[24] = target: Neu5Gc(a2-6)Gal(b1-4)GlcNAc
How it was run: as §1

Neu5Gc(a2-6)GalNAc = target: Neu5Gc(a2-6)GalNAc
How it was run: as §1

[25] = target: Neu5Gc(a2-8)Neu5Ac(a2-3)Gal(b1-4)GlcNAc
How it was run: as §1

[26] = target: Neu5Gc(a2-8)Neu5Gc(a2-3)Gal(b1-4)GlcNAc
How it was run: as §1

[27] = target: Neu5Gc(a2-8)Neu5Gc(a2-3)Gal(b1-4)GlcNAc(b1-3)Gal(b1-4)GlcNAc
How it was run: as §1

[28] = target: Neu5Gc(a2-8)Neu5Gc(a2-6)Gal(b1-4)GlcNAc
How it was run: as §1

[29] = target: Neu5Gc(b2-6)Gal(b1-4)GlcNAc
How it was run: as §1

B1: MGL6A (Homo sapiens) (protein)
chain: MTRTYENFQYLENKVKVQGFKNGPLPLQSLLQRLCSGPCHLLLSLGLGLLLLVIICVVGFQNSKFQRDLVTLRTDFSNFTSNTVAEIQALTSQGSSLEETIASLKAEVEGFKQERQAVHSEMLLRVQQLVQDLKKLTCQVATLNNNGEEASTEGTCCPVNWVEHQDSCYWFSHSGMSWAEAEKYCQLKNAHLVVINSREEQNFVQKYLGSAYTWMGLSDPEGAWKWVDGTDYATGFQNWKPGQPDDWQGHGLGGGEDCAHFTPDGRWNDDVCQRPYHWVCEAGLGQTSQESH
glycan array binding signal (z-score) [1]: -0.175
glycan array binding signal (z-score) [2]: -0.175
glycan array binding signal (z-score) (Neu5Ac(a2-8)Neu5Ac): -0.171
glycan array binding signal (z-score) [3]: -0.164
glycan array binding signal (z-score) [4]: -0.168
glycan array binding signal (z-score) [5]: -0.174
glycan array binding signal (z-score) [6]: -0.175
glycan array binding signal (z-score) [7]: -0.176
glycan array binding signal (z-score) [8]: 0.155
glycan array binding signal (z-score) [9]: -0.166
glycan array binding signal (z-score) [10]: -0.176
glycan array binding signal (z-score) [11]: -0.173
glycan array binding signal (z-score) [12]: 0.002
glycan array binding signal (z-score) [13]: -0.123
glycan array binding signal (z-score) [14]: -0.177
glycan array binding signal (z-score) [15]: -0.179
glycan array binding signal (z-score) (Neu5Ac(b2-6)GalNAc): -0.177
glycan array binding signal (z-score) [16]: -0.175
glycan array binding signal (z-score) [17]: -0.169
glycan array binding signal (z-score) [18]: -0.173
glycan array binding signal (z-score) [19]: -0.171
glycan array binding signal (z-score) [20]: -0.174
glycan array binding signal (z-score) (Neu5Gc(a2-3)Gal(b1-4)Glc): -0.171
glycan array binding signal (z-score) [21]: -0.175
glycan array binding signal (z-score) [22]: -0.169
glycan array binding signal (z-score) [23]: -0.166
glycan array binding signal (z-score) [24]: -0.171
glycan array binding signal (z-score) (Neu5Gc(a2-6)GalNAc): -0.17
glycan array binding signal (z-score) [25]: -0.174
glycan array binding signal (z-score) [26]: -0.176
glycan array binding signal (z-score) [27]: -0.178
glycan array binding signal (z-score) [28]: -0.173
glycan array binding signal (z-score) [29]: -0.176
